In PubChem BioAssay AID624202 (National Center for Advancing Translational Sciences (NCATS), 2012):
Out of some 380,000 compounds screened, about 4,000 (1.1%) were called active. The inconclusive results got no clear call from the source; some entries with a clear call stand among them for comparison. Calls follow the shape of the dose curve; as a rule, active = well fitted activation curve with a large enough effect; inconclusive = small, poorly fitted or top-dose-only effect; inactive = no such curve, though single readings can be large or run the other way. Where the call is inconclusive, the potency comes from a doubtful curve fit.
Potency is read from the fitted curve at half-maximal effect; tags tell the direction and shape of the fitted curve.

Experiment: qHTS Assay to Identify Small Molecule Activators of BRCA1 Expression; also: nearly all actives have a fitted effect of over 80% in size
Settings: MCF7-BRCA1-FFLuc reporter, luminescence, 48 h; activation: at 46.1 µM (top of the series), scaled: vehicle 0%, 10 µM genistein 100% unless noted
Summary of the method: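 Reporter cells (MCF7, BRCA1 promoter-firefly luciferase) received library compounds across a concentration series for 48 h. End-point luminescence was measured and concentration-effect curves derived after normalization.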
In the case of CC(=O)Nc1cccc(-c2nc3ccccc3o2)c1, the Potency is reported as inconclusive: 14.1 µM [activator, partial curve, poor fit]. For CCOC(=O)CN(Cc1sccc1C)C(=O)Nc1cccc(OC)c1, the Potency was inconclusive: 35.5 µM [activator, single point]. For Cc1cs/c(=N/C(=S)Nc2ccccc2)n1C, the Potency was inconclusive: 1.26 µM [activator, partial curve, poor fit]. For Nc1ccc(C(=O)O)c(O)c1, the Potency was “inactive”. With COc1cccc2ccc(/C=C/c3ccc4c(c3)OCO4)nc12 the Potency was active: 3.55 µM. With CC(Oc1ccccc1F)C(=O)Nc1ccc(-c2nc3ccccc3s2)cc1 (configuration not stated) the Potency was inconclusive: 35.5 µM [activator, single point]. In the case of Cc1ccc(/C=C/c2nc3ccccc3[nH]2)o1, the Potency is reported as inconclusive: 0.631 µM [activator, full curve, poor fit]. For CC(=O)SC1CC(=O)N(c2ccc(C(C)(C)C)cc2)C1=O (configuration not stated), the “activation” value was inactive: 0%. For O=C(CN1C(=O)c2ccccc2C1=O)NCC(=O)Nc1ccccc1, the “activation” value was inactive: -0.139%. For CN1/C(=C\C(=O)c2cccnc2)C(C)(C)c2ccccc21, the Potency was inconclusive: 35.5 µM [activator, single point]. For O=c1c2c3c(sc2ncn1/N=C/c1ccccc1)CCCC3, the Potency was active: 20 µM. For Cc1cc(NC(=O)c2ccc(NC(=O)C(C)C)cc2)no1, the Potency was inconclusive: 17.8 µM [activator, single point]. In the case of Cc1ccccc1C(=O)c1cccn1CC(=O)NCc1cccc(Cl)c1, the Potency is reported as inconclusive: 31.6 µM [activator, single point]. For COc1ccc(C(=O)Nc2ccc3nc(C)sc3c2)cc1OC, the Potency was inconclusive: 15.8 µM [activator, partial curve, poor fit]. For CN(C)CCCNc1ncnc2sc(-c3ccccc3)cc12, the “activation” value was inactive: -4.66%. With CCCC(C)(C)C(=O)N1CCC1(C)C(=O)NS(=O)(=O)c1ccccc1Cl (configuration not stated) the “activation” value was inactive: 13.8%. With Cc1cccc2nc(CNc3ccc(F)cc3)cn12 the Potency was active: 12.6 µM. In the case of Cc1cccc(CC(C)NC(=O)c2cc(COc3ccc(F)cc3F)on2)n1 (configuration not stated), the Potency is reported as inconclusive: 17.8 µM [activator, partial curve, poor fit]. For CCOc1ccc(-c2cnc3cccnn23)cc1, the Potency was active: 7.08 µM. For CCCCc1ccc(NC(=S)N2CCCC2)cc1, the Potency was inconclusive: 20 µM [activator, partial curve, poor fit]. For CCC1Oc2ccccc2N(CC(=O)NCc2cccs2)C1=O (configuration not stated), the Potency was inconclusive: 22.4 µM [activator, single point]. With COc1ccc(-c2nnc(SCC(=O)c3cccs3)o2)cc1 the Potency was active: 7.08 µM. With COc1cccc(NC(=O)CSc2nc3c(oc4ccccc43)c(=O)[nH]2)c1 the Potency was inconclusive: 35.5 µM [activator, single point]. In the case of CN(C)/C=C/C(=O)c1ccc(Oc2ccccc2)cc1, the Potency is reported as inconclusive: 5.62 µM [activator, full curve, poor fit]. In the case of Fc1ccc(-c2noc(-c3ccc4c(c3)CCO4)n2)cc1, the Potency is reported as inconclusive: 1 µM [activator, full curve, poor fit]. With CC1=NN(c2ccccc2)C(=O)C1C(=O)C(=O)Nc1ccc(F)cc1 (configuration not stated) the Potency was inconclusive: 12.6 µM [activator, partial curve, poor fit]. With OCC1OC(n2cnc3c(=S)nc[nH]c32)C(O)C1O (configuration not stated) the Potency was “inactive”. In the case of N#C/C(=C\c1c[nH]c2ccccc12)C(=O)NCC1CCCO1 (configuration not stated), the Potency is reported as inconclusive: 14.1 µM [activator, single point]. In the case of CCOC(=O)CSc1nc2cc(C)cc(C)c2cc1C#N, the Potency is reported as inconclusive: 35.5 µM [activator, single point]. In the case of COc1ccc(-n2[nH]c3c(cnc4ccccc43)c2=O)cc1, the Potency is reported as active: 14.1 µM. With Nc1ccc2nc(-c3ccc(N)c(Cl)c3)[nH]c2c1 the Potency was active: 4.47 µM. For Cc1ccc(/C=N/Nc2ccccn2)s1, the Potency was active: 11.2 µM. For COc1ccc(C(=O)Nc2ccc(N3CCN(C)CC3)cc2)cc1, the Potency was active: 2.24 µM. In the case of COc1ccc(-c2coc3cc(O)cc(O)c3c2=O)cc1, the Potency is reported as inconclusive: 2.51 µM [activator, partial curve, poor fit]. In the case of COc1ccc(-c2nnc(SCC(=O)N3CCOCC3)o2)cc1, the Potency is reported as inconclusive: 20 µM [activator, partial curve, poor fit]. For COc1cc(C2Nc3cc(Cl)c(S(N)(=O)=O)cc3S(=O)(=O)N2)ccc1OCc1ccccc1 (configuration not stated), the Potency was inconclusive: 10 µM [activator, partial curve, poor fit]. In the case of COc1ccccc1CNC(=O)Cc1ccccc1, the Potency is reported as active: 11.2 µM. With CCOC(=O)c1nn(-c2ccccc2)cc1O the Potency was inconclusive: 14.1 µM [activator, partial curve, poor fit]. In the case of COc1ccc(C(=O)Nn2c(SCC(=O)NCc3ccccc3)nc3ccccc3c2=O)cc1, the “activation” value is reported as inactive: -43.6%. In the case of CCS(=O)(=O)N1CCc2nc(-c3ccccc3)sc2C1, the Potency is reported as inconclusive: 1.26 µM [activator, full curve, poor fit]. In the case of Cc1cccc(C(=O)n2c(=S)nc3cc(C)ccn32)c1, the activation is reported as inconclusive: 54% [activator]. With Cc1ccc(CNC(=O)Cn2cnc(C(=O)Nc3ccc(C)c(C)c3)n2)o1 the Potency was inconclusive: 14.1 µM [activator, single point]. In the case of O=[N+]([O-])c1ccc(/C=N/N/C(=N/c2ccccn2)c2ccccn2)cc1, the Potency is reported as inconclusive: 25.1 µM [activator, partial curve, poor fit]. In the case of Clc1ncccc1-c1nc2ccccc2s1, the Potency is reported as inconclusive: 17.8 µM [activator, partial curve, poor fit]. In the case of COCC(=O)n1nc(-c2ccccc2)nc1NCc1ccc(N(C)C)cc1, the Potency is reported as inconclusive: 7.08 µM [activator, partial curve, poor fit]. With COc1ccc(Nc2ncccc2C(=O)O)cc1 the Potency was inconclusive: 10 µM [activator, partial curve, poor fit]. With COc1ccccc1N=c1oc2cc(O)ccc2cc1C(N)=O the Potency was active: 10 µM.
